Experimental findings from the antibiotic and cytotoxicity screens of Wong et al. (2023) are described below.

In one assay the test system is HSkMC. In words: cytotoxicity call (relative viability < 0.9). Conditions: 10 µM.
For the next assay, the system named is HepG2. Put plainly: cytotoxicity call (relative viability < 0.9). Conditions: 10 µM.
The next assay deals with S. aureus RN4220. Put plainly: growth inhibition call (relative growth <= 0.2). Particulars: 50 µM.

Structures are written as SMILES. The list shows a part of the results.

As to `C[C@@H](Sc1nc2ncnc(N)c2[nH]1)C(=O)O`, the cytotoxicity call in the assay on HSkMC and in the assay on HepG2 was “inactive” in each case. Moreover, the growth inhibition call in the assay with S. aureus RN4220 is “inactive”.
With `C=CCOC[C@@H]1CN(C)Cc2nnn(C)c21`, the cytotoxicity call in the assay on HSkMC and in the assay on HepG2 was “inactive” each time. Also, the growth inhibition call in the assay with S. aureus RN4220 is “inactive”.
For the compound `COc1ccc(S(=O)(=O)N(C)C[C@H]2Oc3ccc(NS(=O)(=O)c4c(C)noc4C)cc3CC(=O)N([C@@H](C)CO)C[C@@H]2C)cc1`, the cytotoxicity call in the assay on HSkMC and with HepG2 was “inactive” each time. Also, the growth inhibition call with S. aureus RN4220 was “inactive”.
For `O=C(C[C@H]1CC[C@H]2[C@@H](COC[C@@H](O)CN2C(=O)c2ccncc2)O1)NC1CCC1`, the cytotoxicity call with HSkMC and in the assay with HepG2 was “inactive” throughout. Further, the growth inhibition call in the assay on S. aureus RN4220 was “inactive”.
As to `COc1cccc(-c2cnc3c(c2)C(=O)N([C@H](C)CO)C[C@H](C)[C@H](CN(C)S(=O)(=O)c2cccs2)O3)c1`, the cytotoxicity call with HSkMC and in the assay with HepG2 was “inactive” in each case. Further, the growth inhibition call with S. aureus RN4220 is “inactive”.
With `C[C@H]1CN([C@@H](C)CO)C(=O)c2cccc(NC(=O)CCCCCC(=O)Nc3ccccc3N)c2O[C@@H]1CN(C)CC1CCCCC1`, the cytotoxicity call with HSkMC is “inactive”. In the assay on HepG2, the cytotoxicity call was “active”. The growth inhibition call in the assay on S. aureus RN4220 is “inactive”.
Consider `CCc1cccc2c3c([nH]c12)C(CC)(CC(=O)O)OCC3` (stereo unspecified), for which the cytotoxicity call in the assay on HSkMC and with HepG2 was “inactive” in each case. Moreover, the growth inhibition call in the assay on S. aureus RN4220 is “inactive”.
Regarding `COC(=O)CNC(=O)c1ccc(S(=O)(=O)N2CCOCC2)cc1`, the cytotoxicity call in the assay with HSkMC and in the assay on HepG2 was “inactive” in each case. In the assay on S. aureus RN4220, the growth inhibition call was “inactive”.
Turning to `COc1cc(CN(CCc2ccccn2)C(=O)CCCCc2ccccc2)ccc1OCc1ccccc1`, the cytotoxicity call in the assay with HSkMC and in the assay with HepG2 was “inactive” each time. In the assay with S. aureus RN4220, the growth inhibition call was “inactive”.
As to `C#CCN([C@H](/C=C/C1CC1)[C@@H](O)Cc1ccccc1)[C@@H](Cc1ccc(-n2cc(C(=O)NO)nn2)cc1)C(=O)OC`, the cytotoxicity call in the assay with HSkMC and in the assay on HepG2 was “inactive” throughout. Besides, the growth inhibition call with S. aureus RN4220 is “inactive”.
As to `C[C@H](CO)N1C[C@H](C)[C@H](CN(C)S(=O)(=O)c2ccc(F)cc2)Oc2ccc(N(C)C)cc2CC1=O`, the cytotoxicity call with HSkMC and in the assay on HepG2 was “inactive” throughout. In addition, the growth inhibition call in the assay on S. aureus RN4220 was “inactive”.
In the case of `O=S(=O)(NCC[C@H]1CC[C@@H](NS(=O)(=O)c2cccc(Cl)c2)[C@H](CO)O1)c1cccc(F)c1`, the cytotoxicity call with HSkMC and in the assay on HepG2 was “inactive” throughout. The growth inhibition call with S. aureus RN4220 was “inactive”.
Regarding `COc1ccc(C[C@@H](N)C(=O)N[C@@H]2[C@@H](O)[C@@H](n3cnc4c(N(C)C)ncnc43)O[C@@H]2CO)cc1`, the cytotoxicity call in the assay with HSkMC and with HepG2 was “active” in each case. Moreover, the growth inhibition call in the assay with S. aureus RN4220 was “active”.
As to `CC(C)NC(=O)Nc1ccc2c(c1)C(=O)N([C@@H](C)CO)C[C@H](C)[C@H](CN(C)C(=O)Nc1ccc3c(c1)OCO3)O2`, the cytotoxicity call in the assay on HSkMC and with HepG2 was “inactive” each time. Besides, the growth inhibition call in the assay on S. aureus RN4220 is “inactive”.
For the compound `N#CCC12CC3CC(CC(C3)C1)C2`, the cytotoxicity call in the assay on HSkMC and in the assay on HepG2 was “inactive” in each case. For the same compound, the growth inhibition call in the assay on S. aureus RN4220 is “inactive”.
`C[C@@H]1CN([C@@H](C)CO)C(=O)c2cc(NS(=O)(=O)c3ccc(Cl)cc3)ccc2O[C@@H](C)CCCCO[C@@H]1CN(C)C(=O)Cc1ccccc1`: the cytotoxicity call with HSkMC and with HepG2 was “inactive” each time. Also, in the assay with S. aureus RN4220, the growth inhibition call was “inactive”.
For the compound `COCC(=O)N1C[C@H](C)[C@H](OC)CN(C)C(=O)c2ccc(NC(=O)c3ccc(OC)cc3)cc2OC[C@H]1C`, the cytotoxicity call in the assay on HSkMC and with HepG2 was “inactive” each time. In addition, in the assay with S. aureus RN4220, the growth inhibition call is “inactive”.
As for `Cn1nnc2c(C(N)=O)ncn2c1=O`, the cytotoxicity call in the assay with HSkMC and in the assay with HepG2 was “inactive” each time. Also, the growth inhibition call in the assay with S. aureus RN4220 is “inactive”.
With `COc1ccc(NC(=O)Nc2ccc3c(c2)C(=O)N([C@H](C)CO)C[C@H](C)[C@@H](CN(C)S(=O)(=O)c2ccccc2)OCCCC[C@H](C)O3)cc1`, the cytotoxicity call in the assay on HSkMC and in the assay on HepG2 was “inactive” each time. In addition, in the assay with S. aureus RN4220, the growth inhibition call was “inactive”.
Consider `CC(C)N1CC=C[C@@]23O[C@@H]4C=CCCOC(=O)[C@@H]4[C@H]2C(=O)N([C@@H](C)CO)[C@@H]3C1=O`, for which the cytotoxicity call in the assay on HSkMC and in the assay with HepG2 was “inactive” throughout. Besides, the growth inhibition call with S. aureus RN4220 is “inactive”.
Consider `COCC(=O)Nc1ccc2c(c1)C(=O)N(C)C[C@@H](OC)[C@H](C)CN(C(=O)Cc1ccccn1)[C@H](C)CO2`, for which the cytotoxicity call in the assay with HSkMC and with HepG2 was “inactive” throughout. For the same compound, in the assay with S. aureus RN4220, the growth inhibition call is “inactive”.
For `Cn1cnc(S(=O)(=O)N[C@@H]2CC[C@H](CC(=O)NCC3CC3)O[C@@H]2CO)c1`, the cytotoxicity call with HSkMC and in the assay with HepG2 was “inactive” in each case. Further, the growth inhibition call with S. aureus RN4220 is “inactive”.
As for `CC(=O)O[C@H]1CC[C@]2(C)[C@H]3CC[C@]4(C)C(=CC(=O)O[C@H]4c4ccoc4)[C@]3(C)[C@H](OC(C)=O)C[C@H]2C1(C)C`, the cytotoxicity call with HSkMC and in the assay with HepG2 was “inactive” each time. In addition, the growth inhibition call in the assay on S. aureus RN4220 was “inactive”.
Regarding `C[C@H](O)C#Cc1cnc2c(c1)C(=O)N([C@@H](C)CO)C[C@H](C)[C@H](CN(C)C(=O)Nc1ccc(C(F)(F)F)cc1)O2`, the cytotoxicity call in the assay on HSkMC and with HepG2 was “inactive” each time. In the assay on S. aureus RN4220, the growth inhibition call was “inactive”.
For the compound `CN1CCN(C(=O)C[C@@H]2CC[C@H](NC(=O)Cc3ccccn3)[C@H](CO)O2)CC1`, the cytotoxicity call in the assay on HSkMC (human skeletal muscle cells) and in the assay on HepG2 was “inactive” in each case. Moreover, the growth inhibition call with S. aureus RN4220 is “inactive”.
Regarding `COc1cccc(NC(=O)N2C[C@H](O)COC[C@@H]3O[C@@H](CC(=O)NCCCN4CCOCC4)CC[C@H]32)c1`, the cytotoxicity call with HSkMC and in the assay with HepG2 was “inactive” in each case. Moreover, the growth inhibition call in the assay with S. aureus RN4220 is “inactive”.
Turning to `C=CCOC(=O)[C@H]1[C@@H]2C(=O)O[C@@H](c3ccccc3)[C@@H](c3ccccc3)N2[C@@H](c2ccc(OCCOC(=O)[C@H]3C[C@H]4C(=O)N5CCC[C@H]5C(=O)N4[C@H]3c3ccc(O)cc3)cc2)[C@]12C(=O)Nc1ccc(I)cc12`, the cytotoxicity call in the assay with HSkMC and with HepG2 was “inactive” throughout. For the same compound, in the assay on S. aureus RN4220, the growth inhibition call is “inactive”.
